Data: PubChem BioAssay AID588855 (National Center for Advancing Translational Sciences (NCATS), 2011)
Out of some 410,000 compounds screened, about 5,000 (1.2%) were called active. This list was built around the results that the source calls inconclusive (neither active nor inactive); the mix of calls is not that of the screen. Calls come from the whole dose curve; as a rule, active = well fitted inhibition curve with a large enough effect; inconclusive = small, poorly fitted or top-dose-only effect; inactive = no such curve, though single readings can be large or run the other way. Where the call is inconclusive, the potency comes from a doubtful curve fit.

assay: qHTS for Inhibitors of TGF-b; conditions: HepG2 CAGA-GFP TGF-b/SMAD3 reporter, GFP fluorescence, 18 h, TGF-beta stimulated, 500 pg/mL final; series mostly up to 46.1 µM; note: nearly all actives have a fitted effect of over 65% in size
Outline: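 Using HEPG2 CAGA-GFP reporter cells at 1000 cells/well, we pinned test compounds, stimulated with recombinant TGF-beta (500 pg/mL final) and measured total well GFP after 18 h.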
Potency is the fitted concentration of half-maximal effect; tags give direction and shape of the fitted curve.

Structure (SMILES) | Potency
CCN(CC)c1ccc(-c2nc(-c3ccncc3)no2)cc1[N+](=O)[O-] | inconclusive: 3.16 µM [inhibitor, full curve, poor fit]
Cc1cccc(C)c1NC(=O)CCCSc1nc2ccccc2s1 | inconclusive: 1.26 µM [inhibitor, full curve, poor fit]
COc1ccccc1-c1cc(C(F)(F)F)nc(S(=O)(=O)CCCC(=O)Nc2cccnc2Cl)n1 | inconclusive: 35.5 µM [inhibitor, single point]
Cc1ccccc1C(=O)/C=C1\NC(=O)CS1 | inconclusive: 35.5 µM [inhibitor, single point]
Cc1onc(-c2cccc(Cl)c2Cl)c1C(=O)O/N=C(\N)c1ccc([N+](=O)[O-])o1 | inconclusive: 12.6 µM [inhibitor, partial curve, poor fit]
O=C(N/N=C1/CC2C=CCC12)c1ccc(Br)o1 (stereo unspecified) | inconclusive: 5.62 µM [inhibitor, single point]
CCOC(=O)C(=CNc1ccc(-c2ccco2)c(Cl)c1)C(=O)OCC | inconclusive: 35.5 µM [inhibitor, single point]
O=C(COc1ccccc1[N+](=O)[O-])Nc1ccccc1N1CCCCC1 | inconclusive: 35.5 µM [inhibitor, single point]
CCC(NC(=O)c1ccc2nc(Cc3ccc(OC)cc3)oc2c1)c1ccncc1 (stereo unspecified) | inconclusive: 12.6 µM [inhibitor, partial curve]
COc1ccc(C(C)(C)C)cc1NC(=O)COc1ccc(-c2nnco2)cc1 | inactive
CCCCN(C(=O)c1cccc(S(=O)(=O)N2CCCCC2)c1)C1CCS(=O)(=O)C1 (stereo unspecified) | inconclusive: 4.47 µM [inhibitor, full curve]
O=C(N/N=C/c1ccccc1O)C1CC(=O)N(c2ccc(F)cc2)C1 (stereo unspecified) | inconclusive: 6.31 µM [inhibitor, single point]
Cc1ccc(OCC(=O)c2cc(C)n(-c3cc(C)on3)c2C)c([N+](=O)[O-])n1 | inconclusive: 14.1 µM [inhibitor, partial curve]
CCOC(=O)C(=CNc1ccc(S(N)(=O)=O)cc1)C(=O)OCC | inactive
COc1ccc(-c2nc3n(n2)C(c2ccccc2F)C(C(=O)Nc2cccnc2)=C(C)N3)cc1OC (stereo unspecified) | inconclusive: 12.6 µM [inhibitor, partial curve]
CCCC(Oc1ccc(Br)cc1)c1nc2c3cc(OC)c(OC)cc3nc(=S)n2[nH]1 (stereo unspecified) | inconclusive: 0.1 µM [inhibitor, partial curve, poor fit]
CCn1c(CNC(=O)c2cccs2)nnc1SCC(=O)Nc1ccc(Cl)cc1 | inconclusive: 0.501 µM [inhibitor, partial curve, poor fit]
COc1cc(-c2cc3nc(NCCOc4ccccc4)ccn3n2)cc(OC)c1OC | inconclusive: 35.5 µM [inhibitor, single point]
c1ccc(C(c2cccs2)c2c[nH]c3ccccc23)cc1 (stereo unspecified) | inconclusive: 35.5 µM [inhibitor, single point]
O=C(c1ccc(-c2ccccc2)cc1)N1CCN(c2ccccc2F)CC1 | inconclusive: 35.5 µM [inhibitor, single point]
Cc1cccc(Cn2c(=O)n(Cc3ccco3)c(=O)c3ccccc32)c1 | inconclusive: 17.8 µM [inhibitor, single point]
O=c1c(-c2ccc3c(c2)OCCO3)coc2c(CN3CCOCC3)c(O)ccc12 | inactive

Structure (SMILES) | Potency
Cc1ccc(-c2sc(C(=O)Nc3ccc(Br)cc3)cc2CC(=O)O)cc1 | inconclusive: 22.4 µM [inhibitor, single point]
CCOC(=O)C1CCN(S(=O)(=O)c2cccc(-c3cn4cccnc4n3)c2)CC1 | inconclusive: 15.8 µM [inhibitor, single point]
CCN(CC(=O)Nc1c(F)cccc1F)C(=O)CCCOc1ccccc1 | inconclusive: 1.41 µM [inhibitor, full curve]
CCc1ccc2c(c1)cc(CN(C(=S)Nc1ccc(Cl)cc1)C1CC1)c1nnnn12 | inconclusive: 1.26 µM [inhibitor, full curve]
O=C(/C=C(O)/C=C/c1ccc(O)cc1)/C=C/c1ccc(O)cc1 | inconclusive: 25.1 µM [inhibitor, single point]
COCC1CCCCN1C(=O)C1CCN(c2nc(-c3ccccc3)nc3c2CCC3)CC1 (stereo unspecified) | inactive
Cc1cccc(C)c1OCC(=O)Nc1cccc(S(=O)(=O)N2CCCCCC2)c1 | inconclusive: 35.5 µM [inhibitor, single point]
CCOc1cc(C2C(C(=O)OC)=CN(Cc3ccc(Cl)cc3)C=C2C(=O)OC)ccc1O | inconclusive: 2.82 µM [inhibitor, full curve, poor fit]
CCN(CC)C(=O)C(=O)c1cn(CC(=O)NCC2CCCO2)c2ccccc12 (stereo unspecified) | inconclusive: 15.8 µM [inhibitor, single point]
COc1ccc(SC[C@H](CC(C)C)N2CCN(CCc3ccccc3)CCC2=O)cc1 | inconclusive: 35.5 µM [inhibitor, single point]
CCn1c(=O)c2cc(C(=O)N(CCCOC(C)C)Cc3ccco3)sc2c2ccccc21 | inconclusive: 20 µM [inhibitor, partial curve, poor fit]
Fc1cccc(/C=N/Nc2nccnc2Cl)c1 | inactive
COCC1CCN(C(=O)c2ccc(OC3CCN(Cc4ccccn4)CC3)cc2)C1 (stereo unspecified) | inconclusive: 17.8 µM [inhibitor, single point]
O=C(c1ccccc1)c1coc2c1C(=O)c1ccccc1C2=O | inconclusive: 14.1 µM [inhibitor, partial curve, poor fit]
CS(=O)(=O)c1nc2ccccc2n1Cc1ccccc1 | inactive
CC(C)c1onc(C(=O)NC2CCCC2)c1[N+](=O)[O-] | inconclusive: 6.31 µM [inhibitor, partial curve]
O=C(Cn1nnc(-c2ccccc2)n1)N/N=C/c1cc([N+](=O)[O-])c(Cl)cc1Cl | inactive
Cc1ccc(-n2cc(CN3CCN(C(=O)c4ncn[nH]4)CC3)c(-c3ccc(F)cc3)n2)cc1 | inconclusive: 35.5 µM [inhibitor, single point]
CCc1ccc(CNC(=O)c2ccc3c(c2)NC(=O)C(N2CCOCC2)S3)cc1 (stereo unspecified) | inconclusive: 6.31 µM [inhibitor, partial curve]
Cc1nn(C(=O)c2ccccc2F)c(C)c1S(=O)(=O)N1CCOCC1 | inactive
CCOc1c2c(c(-c3ccc4c(c3)OCO4)c3cc(OC)c(OC)cc13)C(=O)OC2 | inconclusive: 1.26 µM [inhibitor, full curve]
Cc1ccc(NCc2ccc(O)c3ncccc23)cc1 | inactive

Structure (SMILES) | Potency
C/C(=N\Nc1ccccn1)c1ccc(Br)s1 | inconclusive: 4.47 µM [inhibitor, full curve]
Cc1ccc(C(=O)Nc2ccccc2C(=O)O)cc1S(=O)(=O)NCc1ccccc1 | inactive
O=C(CNC(=O)c1ccc(Br)o1)NCC1COc2ccccc2O1 (stereo unspecified) | inactive
Cc1ccc(S(=O)(=O)N2[C@@H](c3ccc(C(C)(C)C)cc3)C(C(=O)O)=CC[C@H]2c2ccc(Cl)cc2)cc1 | inconclusive: 35.5 µM [inhibitor, single point]
CCOC(=O)C1(CCCc2ccccc2)CCN(C(=O)CCc2cnn(C)c2)CC1 | inactive
COc1cc(NC(=O)c2cccnc2SC)cc(OC)c1OC | inactive
COC(=O)c1sccc1S(=O)(=O)N(CC(=O)NCc1ccccc1)c1ccccc1 | inactive
COc1cc2cc(-c3ccc(O)cc3O)nc(C)c2cc1OC | inactive
Cc1ccc(N=C2C(=O)Nc3ccc(C)c(Br)c32)cc1 | inconclusive: 8.91 µM [inhibitor, partial curve, poor fit]
COc1ccc(C)cc1Nc1n[n+](-c2ccccc2)c(-c2cccc(Cl)c2Cl)s1 | inconclusive: 10 µM [inhibitor, partial curve, poor fit]
COc1ccc(NS(=O)(=O)c2ccc3c(c2)C(C(C)C)C(=O)N3)cc1 (stereo unspecified) | inactive
Cc1ccc(OCCC(=O)OCC(=O)N2CCN(S(=O)(=O)c3ccc(C)cc3)CC2)cc1 | inactive
Oc1ccc(Cl)cc1C1C=C(c2ccc3c(c2)OCO3)NC(c2ccc(Br)cc2)N1 (stereo unspecified) | inactive
Cc1ccc2c(c1)c1c3n2CCN(CC(O)CNC(C)C)C3CCC1 (stereo unspecified) | inactive
O=C(NCc1ccc(Cl)cc1)c1csc(-c2cccnc2)n1 | inconclusive: 35.5 µM [inhibitor, partial curve, poor fit]
O=S(=O)(c1ccc(Br)cc1)c1nnn2c1nc(NC1CCCCCC1)c1sccc12 | inactive
Cc1ccc(N2CC(c3nnc(NC(=O)c4ccco4)s3)CC2=O)cc1Cl (stereo unspecified) | inactive
COc1cccc(C(=O)Nc2cc3c(cc2N2CCCC2)n(C)c(=O)n3C)c1 | inactive
C[C@@H]1CCCCO[C@H](CN(C)Cc2ccc3c(c2)OCO3)[C@@H](C)CN([C@H](C)CO)C(=O)c2cc(NC(=O)c3ccccc3)ccc2O1 | inconclusive: 17.8 µM [inhibitor, partial curve, poor fit]
Cc1cc(NS(=O)(=O)c2ccc3nc(-c4ccccc4)[nH]c3c2)ccc1Br | inconclusive: 35.5 µM [inhibitor, single point]
O=C(c1ccco1)N1CCN(C2CN(Cc3ccccc3)S(=O)(=O)C2)CC1 (stereo unspecified) | inconclusive: 12.6 µM [inhibitor, single point]
COc1ccccc1-c1noc(CSc2nnc(Cc3ccccc3)n2-c2ccc(C)c(C)c2)n1 | inconclusive: 25.1 µM [inhibitor, single point]
